Measured values published in the supplement of paper PMC10126150.
Sequences with one replicate were seen in a single cluster, so their values are uncertain.

The sequences below were run on ATP (assay: switch fluorescence ratio, 500 uM ATP over buffer (Cy3 cluster intensity, sum of 5 cycles each) (fold (ratio)); higher = stronger signal-on switching upon ATP binding; sequences stand for … in TCGTCGGCAGCGTCAGATGTGTATAAGAGACAGTTTTTTTTTTTTTTTTTTTTTTTTT…TC). Conditions: aptamer strand: ATP DNA aptamer (quencher-CACCTGGGGGAGTATTGCGGAGGAAGG + anchor), 100 nM annealed; ATP concentration: 500 uM; one replicate.
Procedure, shortened: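 Cy3-labelled switching-strand clusters on a modified Illumina MiSeq flow-cell were annealed to 100 nM quencher-labelled ATP aptamer and imaged first in selection buffer, then after 15 min with 500 uM ATP at 22 °C. NaOH stripping and re-annealing separated each of five buffer/ATP cycles, and clusters outside 100-1000 RFU were excluded. The fluorescence ratio sums target-cycle Cy3 intensity over buffer-cycle Cy3 intensity per cluster and averages it per switch-domain sequence.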
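Further: ATP exposure 15 min at 22 °C before imaging.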

**Q.** For TAAAGGGCGG, which switch fluorescence ratio is on record?
**A.** 1.17

**Q.** For TAAAGTAGAG, which switch fluorescence ratio is on record?
**A.** 0.988

**Q.** Which switch fluorescence ratio does the source give for TAAAGTCTAG here?
**A.** 0.964

**Q.** How did the switch fluorescence ratio turn out when TAAAGTCTG was run?
**A.** 0.935

**Q.** TAAAGTGGCA was tested. Which switch fluorescence ratio did it give?
**A.** 0.991

**Q.** TAAAGTGTTA was tested. Which switch fluorescence ratio did it give?
**A.** 0.984

**Q.** TAAATAACGG was tested. Which switch fluorescence ratio did it give?
**A.** 1.04

**Q.** Which switch fluorescence ratio does the source give for TAAATAAGAA here?
**A.** 0.965

**Q.** How did the switch fluorescence ratio turn out when TAAATAGATT was run?
**A.** 0.98

**Q.** TAAATATCAT was tested. Which switch fluorescence ratio did it give?
**A.** 0.96

**Q.** With TAAATCTTAA as the sequence, how does the switch fluorescence ratio read?
**A.** 0.976

**Q.** How did the switch fluorescence ratio turn out when TAAATGCAGG was run?
**A.** 1.05

**Q.** Which switch fluorescence ratio does the source give for TAAATGGGGC here?
**A.** 0.996

**Q.** Which switch fluorescence ratio does the source give for TAAATTAGTG here?
**A.** 0.992

**Q.** For TAAATTCCTC, which switch fluorescence ratio is on record?
**A.** 1.09

**Q.** With TAAATTCGGC as the sequence, how does the switch fluorescence ratio read?
**A.** 0.984

**Q.** Which switch fluorescence ratio does the source give for TAAATTGGAA here?
**A.** 0.976

**Q.** With TAACAATGAC as the sequence, how does the switch fluorescence ratio read?
**A.** 1.04

**Q.** How did the switch fluorescence ratio turn out when TAACACCTGG was run?
**A.** 1.07

**Q.** Which switch fluorescence ratio does the source give for TAACACTAGG here?
**A.** 0.968

**Q.** Which switch fluorescence ratio does the source give for TAACAGGAGA here?
**A.** 1.02

**Q.** TAACAGGTAC was tested. Which switch fluorescence ratio did it give?
**A.** 1.07

**Q.** Which switch fluorescence ratio does the source give for TAACATAGAG here?
**A.** 1.01

**Q.** With TAACATTACA as the sequence, how does the switch fluorescence ratio read?
**A.** 1.14

**Q.** With TAACCACACG as the sequence, how does the switch fluorescence ratio read?
**A.** 1.4

**Q.** How did the switch fluorescence ratio turn out when TAACCCCGGG was run?
**A.** 1.25

**Q.** With TAACCTATC as the sequence, how does the switch fluorescence ratio read?
**A.** 1.19

**Q.** How did the switch fluorescence ratio turn out when TAACCTGACC was run?
**A.** 2.44

**Q.** For TAACGACCTC, which switch fluorescence ratio is on record?
**A.** 1.12

**Q.** TAACGCGACT was tested. Which switch fluorescence ratio did it give?
**A.** 1.15

**Q.** For TAACGCGTC, which switch fluorescence ratio is on record?
**A.** 0.995

**Q.** With TAACGGATGA as the sequence, how does the switch fluorescence ratio read?
**A.** 0.966

**Q.** Which switch fluorescence ratio does the source give for TAACGTCGGT here?
**A.** 0.99

**Q.** Which switch fluorescence ratio does the source give for TAACGTTCAA here?
**A.** 1.05

**Q.** With TAACGTTGA as the sequence, how does the switch fluorescence ratio read?
**A.** 1.01

**Q.** Which switch fluorescence ratio does the source give for TAACGTTTGG here?
**A.** 0.994

**Q.** How did the switch fluorescence ratio turn out when TAACTCACG was run?
**A.** 1.43

**Q.** TAACTCATAA was tested. Which switch fluorescence ratio did it give?
**A.** 1.01

**Q.** For TAACTCGGGA, which switch fluorescence ratio is on record?
**A.** 1.15

**Q.** TAACTGGAAG was tested. Which switch fluorescence ratio did it give?
**A.** 1.03

**Q.** With TAACTGGCCG as the sequence, how does the switch fluorescence ratio read?
**A.** 0.986

**Q.** For TAACTTGTT, which switch fluorescence ratio is on record?
**A.** 1

**Q.** TAAGAAGGCA was tested. Which switch fluorescence ratio did it give?
**A.** 1.03

**Q.** Which switch fluorescence ratio does the source give for TAAGACCGTT here?
**A.** 1.01

**Q.** How did the switch fluorescence ratio turn out when TAAGACCTA was run?
**A.** 1.06

**Q.** Which switch fluorescence ratio does the source give for TAAGACGATA here?
**A.** 0.988

**Q.** How did the switch fluorescence ratio turn out when TAAGACGCTA was run?
**A.** 1.13

**Q.** Which switch fluorescence ratio does the source give for TAAGACTCTG here?
**A.** 0.865

**Q.** TAAGAGCCGA was tested. Which switch fluorescence ratio did it give?
**A.** 0.987

**Q.** Which switch fluorescence ratio does the source give for TAAGAGCCGC here?
**A.** 0.972

**Q.** For TAAGAGTTGC, which switch fluorescence ratio is on record?
**A.** 0.949

**Q.** For TAAGATAGC, which switch fluorescence ratio is on record?
**A.** 0.999

**Q.** TAAGATGCTT was tested. Which switch fluorescence ratio did it give?
**A.** 0.973

**Q.** Which switch fluorescence ratio does the source give for TAAGATTAAC here?
**A.** 1.04

**Q.** For TAAGATTAAT, which switch fluorescence ratio is on record?
**A.** 0.998

**Q.** For TAAGATTAGA, which switch fluorescence ratio is on record?
**A.** 1.02

**Q.** Which switch fluorescence ratio does the source give for TAAGCCAACT here?
**A.** 0.972

**Q.** Which switch fluorescence ratio does the source give for TAAGCCCGTG here?
**A.** 1.01

**Q.** How did the switch fluorescence ratio turn out when TAAGCGTATC was run?
**A.** 1.02

**Q.** With TAAGGAAGT as the sequence, how does the switch fluorescence ratio read?
**A.** 0.987

**Q.** TAAGGACCCG was tested. Which switch fluorescence ratio did it give?
**A.** 1.03

**Q.** TAAGGAGGCG was tested. Which switch fluorescence ratio did it give?
**A.** 0.989

**Q.** Which switch fluorescence ratio does the source give for TAAGGATAAA here?
**A.** 0.972

**Q.** How did the switch fluorescence ratio turn out when TAAGGCTAGG was run?
**A.** 1.02

**Q.** For TAAGGGAGCC, which switch fluorescence ratio is on record?
**A.** 1.05

**Q.** Which switch fluorescence ratio does the source give for TAAGGGCTTA here?
**A.** 0.967

**Q.** For TAAGGGGTCT, which switch fluorescence ratio is on record?
**A.** 0.98

**Q.** With TAAGGGTCGG as the sequence, how does the switch fluorescence ratio read?
**A.** 1.05

**Q.** TAAGGTCAAG was tested. Which switch fluorescence ratio did it give?
**A.** 0.981

**Q.** How did the switch fluorescence ratio turn out when TAAGGTCCTG was run?
**A.** 1.01

**Q.** With TAAGTAAAAC as the sequence, how does the switch fluorescence ratio read?
**A.** 1.21

**Q.** With TAAGTAATAT as the sequence, how does the switch fluorescence ratio read?
**A.** 2.3

**Q.** With TAAGTACACC as the sequence, how does the switch fluorescence ratio read?
**A.** 1.27

**Q.** How did the switch fluorescence ratio turn out when TAAGTATGG was run?
**A.** 1

**Q.** How did the switch fluorescence ratio turn out when TAAGTCAGCA was run?
**A.** 1.05

**Q.** Which switch fluorescence ratio does the source give for TAAGTCCCTG here?
**A.** 1.01

**Q.** Which switch fluorescence ratio does the source give for TAAGTCCGTA here?
**A.** 0.891

**Q.** How did the switch fluorescence ratio turn out when TAAGTCTTTA was run?
**A.** 1.01

**Q.** TAAGTGACGT was tested. Which switch fluorescence ratio did it give?
**A.** 0.977

**Q.** Which switch fluorescence ratio does the source give for TAAGTGTGAT here?
**A.** 1.01

**Q.** Which switch fluorescence ratio does the source give for TAAGTTTGCG here?
**A.** 0.962

**Q.** How did the switch fluorescence ratio turn out when TAATAAAAAT was run?
**A.** 0.983

**Q.** For TAATAAGCGC, which switch fluorescence ratio is on record?
**A.** 0.944

**Q.** With TAATAAGGCA as the sequence, how does the switch fluorescence ratio read?
**A.** 1.04

**Q.** TAATACAGGA was tested. Which switch fluorescence ratio did it give?
**A.** 1.03

**Q.** TAATACTGCG was tested. Which switch fluorescence ratio did it give?
**A.** 1.01

**Q.** TAATAGAGGA was tested. Which switch fluorescence ratio did it give?
**A.** 0.984

**Q.** With TAATAGGCGG as the sequence, how does the switch fluorescence ratio read?
**A.** 1.01

**Q.** TAATATAAC was tested. Which switch fluorescence ratio did it give?
**A.** 0.987

**Q.** TAATATCCGC was tested. Which switch fluorescence ratio did it give?
**A.** 1.13

**Q.** For TAATATGAAC, which switch fluorescence ratio is on record?
**A.** 1.04

**Q.** For TAATCATGGC, which switch fluorescence ratio is on record?
**A.** 1.02

**Q.** How did the switch fluorescence ratio turn out when TAATCCAATC was run?
**A.** 1

**Q.** For TAATCCGAGA, which switch fluorescence ratio is on record?
**A.** 1.05

**Q.** Which switch fluorescence ratio does the source give for TAATCGACGT here?
**A.** 1.04

**Q.** With TAATCGCTTC as the sequence, how does the switch fluorescence ratio read?
**A.** 1.05

**Q.** TAATCGGATA was tested. Which switch fluorescence ratio did it give?
**A.** 0.964

**Q.** With TAATCGTTGG as the sequence, how does the switch fluorescence ratio read?
**A.** 1.09

**Q.** TAATCTGAAG was tested. Which switch fluorescence ratio did it give?
**A.** 0.963

**Q.** Which switch fluorescence ratio does the source give for TAATGAAAGG here?
**A.** 0.992

**Q.** TAATGACTTT was tested. Which switch fluorescence ratio did it give?
**A.** 1.05
